The campaign covered roughly 150,000 compounds. About 540 (0.36%) showed an effect of 50% or more. The list shows a part of the results.

This assay relates to Plasmodium falciparum. In words: Primary screen in NF54 nanoGlo assay, in single point, at 2uM, 72h; a lower Z score goes with more inhibition. It is filed as functional, Erythrocyte. The conditions noted are these: timepoint 72 hour.
What is called % Inhibition is the relative decrease from the control value, in per cent. With `CC1CCN(CN2C(=O)N(CN3C(=O)N(CN4CCC(C)CC4)C(=O)C3(C)C)C(C)(C)C2=O)CC1`, the “% Inhibition” value was determined as 0% and the Z score was -0.01.
Consider `O=C(N[C@@H](CO)c1ccsc1)c1cccc2c1OCC2`, for which the “% Inhibition” value is -6% and the Z score stood at 1.04.
On to `CCOc1ccc(-c2nc3c([nH]2)c(C)nn3[C@@H](C)CC)cc1CO`, for which the “% Inhibition” value is on record as -11% and the Z score worked out at 1.61.
`O=C(C1CC1c1ccc(F)c(F)c1)N1CCCC1CO` (configuration not stated): the “% Inhibition” value is listed as -6% and the Z score is listed as 0.62.
Take `CCOC1CCN(C[C@@H](O)CC2CCCC2)CC1`: the “% Inhibition” value is given as -11% and the Z score was 1.66.
For `Cc1cccnc1Cn1ccc(-c2ccc(CN3CCC(F)CC3)s2)n1`, in that order: 1% and -0.19.
The corresponding values for `CC(C)(C)NC(=O)N[C@H]1COc2c1ccc(Cl)c2Cl` are 35% and -5.13.
On to `O=C(O)c1n[nH]cc1CN1CCCN(CCCc2ccccc2)CC1`, for which the “% Inhibition” value was -1% and the Z score is reported as 0.15.
For `O=C([C@@H]1CCCCO1)N(Cc1cncs1)Cc1cncs1`, the “% Inhibition” value came to 7% and the Z score is recorded as -1.
The corresponding values for `Cc1nnccc1C(=O)NC(C)(C)c1cn(C(C)C)nn1` are -11% and 1.76.
For `Cc1nccc(N2CC[C@H]3[C@H](CCC(=O)N3CCCn3ccnc3)C2)n1`, the “% Inhibition” value is -9% and the Z score is listed as 1.68.
For `COC[C@@H]1CN(C(=O)c2ccccc2OC)C[C@H]1c1ccccn1`, in that order: -17% and 2.84.
As for `Cc1cc(C)n(CCN(C)CCc2csc(C)n2)n1`, the “% Inhibition” value is on record as -11% and the Z score is 1.26.
For `Nc1c(-c2ccncc2)nsc1C(=O)NCCc1cccs1`, in that order: -4% and 0.38.
Regarding `CCc1noc2nc(C)nc(NCCc3ccc(C)cc3)c12`, the “% Inhibition” value is listed as -10% and the Z score is 1.12.
For `O=C1N[C@H]2CCN(C(=O)c3c[nH]c(C(F)(F)F)c3)C[C@@H]2CO1`, in that order: -5% and 0.72.
As for `CCN(CC(=O)Nc1cc(C)ccc1OC)C1CN(C(=O)OC(C)(C)C)C1`, the “% Inhibition” value is reported as -1% and the Z score is recorded as 0.18.
`CC(NC1CCCS(=O)(=O)CC1)C(c1ccccc1)N(C)C` (configuration not stated): the “% Inhibition” value is -6% and the Z score was 0.6.
For `O=C(Oc1ccc2c(c1)OCO2)C1CCN(S(=O)(=O)c2ccc3c(c2)CCC3)CC1`, in that order: 6% and -0.8.
With `Cc1ccc(C)c(Cn2c(C(=O)Nc3ccccc3)cc3cc(NC(=O)c4ccco4)ccc32)c1`, the “% Inhibition” value worked out at 2% and the Z score is given as -0.19.
As to `C=CCn1c(=O)sc2cc(NC(=O)Cc3cccc(F)c3)ccc21`, the “% Inhibition” value was -11% and the Z score turned out to be 1.4.
As to `CCOC(=O)N1CCN(C(=O)c2cc(N(C)S(=O)(=O)c3ccccc3)ccn2)CC1`, the “% Inhibition” value is reported as 1% and the Z score is recorded as -0.08.
As to `O=C(c1ccccc1)N1CCN(C(=O)c2ccccc2-c2nc3ccccc3s2)CC1`, the “% Inhibition” value was -8% and the Z score turned out to be 1.1.
Take `CC(C)Oc1cccnc1C(=O)OCc1ncc(C(C)(C)C)o1`: the “% Inhibition” value was -3% and the Z score is given as 0.46.
For the compound `CCOCCN1CCN(C(=O)Nc2ccc(F)cn2)C[C@@H]1CC`, the “% Inhibition” value was -7% and the Z score is reported as 0.77.
For `Cn1nccc1CCNC(=O)NCCc1cc(F)c(F)c(F)c1`, in that order: -5% and 0.55.
With `Cc1c(S(=O)(=O)N2C[C@]3(C)CC[C@@H](C3)C2(C)C)cnn1C`, the “% Inhibition” value is on record as -11% and the Z score amounted to 1.5.
For the compound `O=C(c1ncccn1)N1CCC(Oc2ccncc2Cl)CC1`, the “% Inhibition” value is given as 1% and the Z score is reported as -0.26.
As for `CCCc1nnsc1C(=O)N1[C@@H]2CC[C@H]1CN(C)CC2`, the “% Inhibition” value is on record as -1% and the Z score stood at 0.23.
Consider `CCc1noc(C)c1NC(=O)NC[C@@H]1C[C@H]1c1ccccc1`, for which the “% Inhibition” value is reported as 3% and the Z score is listed as -0.39.
Consider `O=C(Cn1nnc(-c2ccco2)n1)NCCc1ccc(F)cc1`, for which the “% Inhibition” value was -3% and the Z score is listed as 0.39.
With `Clc1ccccc1COc1ccc(CNC2CCCCC2)cc1`, the “% Inhibition” value was found to be 33% and the Z score is -4.73.
Regarding `COc1ccc(OC)c(S(=O)(=O)n2cnnc2)c1`, the “% Inhibition” value is -8% and the Z score is given as 0.92.
For `O=C(c1cccc(Br)c1)N1CCN(c2nnc3ccccn23)CC1`, the “% Inhibition” value is reported as 28% and the Z score was -3.15.
In the case of `CC(C)N(CC(=O)Nc1nc(-c2ccccc2)cn1-c1ccc(F)c(Cl)c1)C(=O)c1ccco1`, the “% Inhibition” value was -7% and the Z score is 0.98.
Consider `CCOC(=O)C1CCN(C(=O)c2snc3c(=O)n(C(C)C)c(=O)[nH]c23)CC1`, for which the “% Inhibition” value was -10% and the Z score was determined as 1.6.
The corresponding values for `CC(C)[C@H]1C(=O)N(C)CCN1C(=O)Nc1ccccc1Oc1ccccc1F` are -6% and 0.99.
With `Cc1cc(S(=O)(=O)NCCc2cnoc2)c(C)o1`, the “% Inhibition” value is on record as 2% and the Z score is -0.33.
With `Cc1nc2n(c1CN1CCN(C(=O)COC3CCCCC3)CC1)CCCC2`, the “% Inhibition” value is -9% and the Z score is 1.15.
Turning to `CC(C)(C)NC(=O)NCc1nccn1CCCc1ccccc1`, the “% Inhibition” value is -5% and the Z score is given as 0.64.
`CC(C)Cn1ccc2c(cc(C(=O)Nc3ccccc3F)n2C)c1=O`: the “% Inhibition” value was -3% and the Z score is given as 0.49.
For `COc1ccc(NC(=O)c2cc(C#N)c3c4ccccc4ccn23)cc1`, in that order: -5% and 0.7.
On to `CCc1nnc(CNC(=O)c2cc(=O)cc(C)[nH]2)s1`, for which the “% Inhibition” value is -21% and the Z score came out at 2.08.
In the case of `Cc1nnsc1CON=C(N)Cc1ccccc1`, the “% Inhibition” value is listed as -11% and the Z score is listed as 1.48.
The corresponding values for `Cc1nn(C)cc1-c1csc(NCCc2ccccn2)n1` are 0% and 0.03.
As to `CCCCc1nc(CN(C)CC2(CO)CCC2)c[nH]1`, the “% Inhibition” value was 0% and the Z score is given as -0.07.
Take `Cc1cc(NC(=O)Cc2c(C)noc2C)sn1`: the “% Inhibition” value is -1% and the Z score is 0.22.
Take `COCCN(CCC(=O)O)C(=O)c1cc(Br)ccc1Cl`: the “% Inhibition” value is recorded as -4% and the Z score was 0.53.
Consider `Cc1cc(OCCC(C)(C)O)ccc1C#N`, for which the “% Inhibition” value is given as -12% and the Z score is 2.32.
The corresponding values for `CN1CCOCC1C(=O)NCC(O)c1ccc(-c2ccccc2)cc1` (configuration not stated) are -9% and 0.76.
In the case of `COc1ccccc1C1(CNS(=O)(=O)c2c(C)noc2C)CCOCC1`, the “% Inhibition” value is 1% and the Z score is -0.23.
For `Cc1ccccc1-c1noc(CN2CCC[C@@H]2Cn2cncn2)n1`, the “% Inhibition” value is given as -8% and the Z score turned out to be 0.8.
With `CN1CCC[C@H](CN(C)C(=O)c2cc(C(C)(C)C)nc(=O)[nH]2)C1`, the “% Inhibition” value is listed as -10% and the Z score came to 1.6.
Turning to `CC(C)(C)NC(=O)NCc1ccc(-c2ccoc2)o1`, the “% Inhibition” value turned out to be 9% and the Z score is given as -1.3.
As to `Cc1c(-c2cc(CN3CCS(=O)(=O)c4ccccc4C3)on2)cnn1C`, the “% Inhibition” value was -7% and the Z score stood at 1.12.
For `Cc1cc(C#N)cc(N[C@@H]2C[C@@H](C)Oc3ccccc32)n1`, the “% Inhibition” value worked out at 12% and the Z score was -2.08.
For `Cc1cc(NC(=O)NCCN2CCCCC2)no1`, in that order: 5% and -0.88.
In the case of `COCCN(C)c1cc(C2CN(C(=O)OC(C)(C)C)C2)ncn1`, the “% Inhibition” value was -10% and the Z score was 1.83.
On to `CC[C@@H](c1cccnc1)N(C)C(=O)c1ccc(N2CC(=O)NC2=O)cc1`, for which the “% Inhibition” value is 1% and the Z score is reported as -0.15.
`Cc1ccc(NC(=O)CCOC2CCOCC2)c(O)n1`: the “% Inhibition” value is -15% and the Z score is 2.87.
For `Cc1ccc(-n2cc(C)cn2)c(NC(=O)N2CCC(OC[C@H]3CCCO3)CC2)c1`, in that order: 4% and -0.53.
For the compound `Cc1cnc(C)c(N[C@H]2CCCCNC2=O)n1`, the “% Inhibition” value is reported as -5% and the Z score is on record as 1.02.
`Cc1noc(C)c1C(=O)N[C@H]1CCOc2ccccc21`: the “% Inhibition” value is given as -15% and the Z score is given as 2.08.
For the compound `Cn1cnc(C(=O)N2CC[C@@H]3OCc4cccc(c4)Oc4ccc(cc4)CCC(=O)N(CCCO)CC(=O)N[C@H]3C2)c1`, the “% Inhibition” value is listed as -20% and the Z score is recorded as 3.74.
`O=C(Cc1cccc(C(F)(F)F)n1)N1CCC[C@@H]1Cn1cncn1`: the “% Inhibition” value is 2% and the Z score is -0.28.
As for `O=S(=O)(CCC(F)(F)F)N1CCCC[C@H](c2ccccc2)C1`, the “% Inhibition” value was 18% and the Z score is -2.33.
For `Cc1cnn(C2CCCC2)c1NC(=O)c1ccc(C(=O)N2CCOCC2)cc1`, the “% Inhibition” value is reported as -4% and the Z score is 0.72.
As for `COc1nccnc1NCC1(N(C)C)CCCCC1`, the “% Inhibition” value is recorded as 2% and the Z score is given as -0.41.
Regarding `CS(=O)(=O)c1cccc(-c2nnc(N3CCOCC3)[nH]2)c1`, the “% Inhibition” value is given as -11% and the Z score came out at 1.38.
Turning to `Cc1noc(C)c1S(=O)(=O)N1C[C@H]2CCCC(=O)N(Cc3cccc(F)c3)[C@H]2C1`, the “% Inhibition” value is on record as 34% and the Z score is reported as -3.85.
Regarding `CC(C)[C@@H](N)C(=O)Nc1cnc2c(c1)CCCC2`, the “% Inhibition” value is recorded as -8% and the Z score was determined as 1.15.
For `O=C(NCCn1ccc(-c2cnccn2)n1)c1ccc(S(=O)(=O)N2CCOCC2)cc1`, the “% Inhibition” value is given as 13% and the Z score is recorded as -1.62.
For `C[C@@H](C(=O)NCCC1=CCCCC1)N(C)Cc1nc2ccccc2s1`, in that order: -5% and 0.54.
The corresponding values for `Brc1ccccc1-n1nncc1-c1nc(-c2cnccn2)no1` are -17% and 2.02.
In the case of `CCc1ncnc(NCCC2CCN(C3CCCC3)CC2)c1F`, the “% Inhibition” value is reported as -9% and the Z score was 1.12.
Consider `O=C(C1CCCCC1)N1CCc2ccccc2[C@@H]1c1ccc(F)cc1`, for which the “% Inhibition” value is on record as 10% and the Z score is on record as -1.42.
In the case of `O=S1(=O)C=C[C@@H](NCc2ccccc2)C1`, the “% Inhibition” value is recorded as -3% and the Z score was found to be 0.28.
Regarding `O=S(=O)(CC12CCC(CC1)CC2)N1CCC2(COC2)C1`, the “% Inhibition” value was -10% and the Z score worked out at 0.97.
Regarding `COCC(O)CN1CCCC1c1nncn1CC(C)C` (configuration not stated), the “% Inhibition” value is on record as -5% and the Z score was found to be 0.65.
In the case of `O=C(c1cc2ccccc2o1)[C@@H]1[C@@H]2CCCN2[C@]2(C(=O)Nc3ccc(Cl)cc32)[C@@]12C(=O)Nc1ccccc12`, the “% Inhibition” value is on record as 1% and the Z score is given as -0.17.
With `N#Cc1c(C2CCNCC2)cc(-c2ccc(F)cc2C(F)(F)F)nc1N`, the “% Inhibition” value was found to be 8% and the Z score was -1.58.
For `O=C1CC2CCC(C1)N2C(=O)CCn1nnc2ccccc2c1=O`, the “% Inhibition” value came out at 28% and the Z score was -3.19.
Consider `Cc1nc([C@H]2C[C@H](NC(=O)c3cnc(N)nc3C(F)(F)F)C2)cc(=O)[nH]1`, for which the “% Inhibition” value was -4% and the Z score turned out to be 0.73.
On to `CC[C@@H](Cc1ccccc1Br)N(C)C(=O)CNC(N)=O`, for which the “% Inhibition” value is -7% and the Z score worked out at 0.93.
As to `CCOC(=O)Nc1nc2c(s1)CN(C(=O)[C@@H]1CC=CCC1)CC2`, the “% Inhibition” value is reported as -6% and the Z score stood at 1.2.
The corresponding values for `O=C(NCc1ccc(F)cc1)c1nc2n(n1)-c1ccccc1S(=O)(=O)N2` are -6% and 1.06.

The record behind these values is ChEMBL document CHEMBL4888484, “Replenishing the malaria drug discovery pipeline: Screening and hit evaluation of the MMV Hit Generation Library 1 (HGL1) against asexual blood stage Plasmodium falciparum ,using a nano luciferase reporter read-out” (2022).
